Assay results published in patent US9995734B2, “Human T cell line assay for evaluating the immunologic identity of glatiramer acetate preparations” (Mylan Inc., priority 2013, dated 2018).

Test system: Donor 3 T-cell cultures
Test: BrdU uptake proliferation screen, Donor 3 cultures initiated with 100 μg/mL COP or GMA
Settings: for GA-specific reactivity, BrdU uptake: Donor 3 cultures initiated and stimulated with 100 μg/mL, Day 13

Row | Substance | GA-specific reactivity, BrdU uptake | GA titration: proliferative and cytokine responses (10 and 30 μg/mL versus 100 μg/mL GA)
1 | glatiramer acetate [GMA] | None of the lines tested showed GA-specific reactivity | –
2 | glatiramer acetate [COP] | None of the lines tested showed GA-specific reactivity | –
3 | L-glutamic acid polymer with L-alanine, L-lysine and L-tyrosine, acetate (salt) [GA] | – | better proliferative and cytokine responses at 10 and 30 μg/mL GA than at 100 μg/mL GA
